Some of the results follow. The full chains were built here from the parent and the listed change. Inactive controls read about 0.05.
B1: TEV protease; numbered along this chain (parent)
chain: MGESLFKGPRDYNPISSSICHLTNESDGHTTSLYGIGFGPFIITNKHLFRRNNGTLVVQSLHGVFKVKDTTTLQQHLVDGRDMIIIRMPKDFPPFPQKLKFREPQREERICLVTTNFQTKSMSSMVSDTSCTFPSGDGIFWKHWIQTKDGQCGSPLVSTRDGFIVGIHSASNFTNTNNYFTSVPKNFMELLTNQEAQQWVSGWRLNADSVLWGGHKVFMVKPEEPFQPVKEATQL

Variants of: B1
Experiment: raw area under fraction-flipped curve 0-4 h after induction (AUC4h, not background-subtracted), DNA-recorder readout of cleavage of the substrate (dimensionless); higher = more cleavage of the substrate by the protease variant
Settings: temperature: 34 °C; time window: 0-4 h after rhamnose induction
Protocol: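 In vivo DNA recorder in E. coli TOP10(DE3) ΔrhaA at 34 °C. Each TEVp single-site mutant (parent TEVp 0) is paired with a single-site variant of the 7-mer TEVs (canonical ENLYFQ|S). The substrate sits between flexible linkers in a Bxb1-sfGFP-TEVs-SsrA fusion, so cleavage stabilises Bxb1 and speeds flipping of a recombination array, read by NGS. The value is the raw area under the fraction-flipped curve over 0-4 h after rhamnose induction (AUC4h), with ≥20 reads per time point. It is not background-subtracted; inactive controls average about 0.047.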
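Further: Bxb1 expression induced with 0.2% (w/v) L-rhamnose at OD600 near 0.5, cultures sampled hourly, flipped fraction per protease–substrate barcode pair counted by paired-end Illumina sequencing.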

Variant | area with substrate ENLYFQA | area with substrate ENLYFQC | area with substrate ENLYFQI | area with substrate ENLYFQL | area with substrate ENLYFQM | area with substrate ENLYFQN | area with substrate ENLYFQP | area with substrate ENLYFQR | area with substrate ENLYFQS | area with substrate ENLYFQV | area with substrate ENLYFQF | area with substrate ENLYFQG | area with substrate ENLYFQH | area with substrate ENLYFQK | area with substrate ENLYFQQ | area with substrate ENLYFQT | area with substrate ENLYFQW | area with substrate ENLYFQY | area with substrate ENLYFQD
MGESLFKGPRDYNPISSSICHLTNESDGHTTSLYGIGFGPFIITNKHLFRRNNGTLVVQSLHGVFKVKDTTTLQQHLVDGRDMIIIRMPFDFPPFPQKLKFREPQREERICLVTTNFQTKSMSSMVSDTSCTFPSGDGIFWKHWIQTKDGQCGSPLVSTRDGFIVGIHSASNFTNTNNYFTSVPKNFMELLTNQEAQQWVSGWRLNADSVLWGGHKVFMVKPEEPFQPVKEATQL [K90F] | 0.0958 | 0.106 | 0.0482 | 0.0602 | 0.106 | 0.0762 | 0.061 | 0.0807 | 0.0983 | 0.0543 |  |  |  |  |  |  |  |  | 
MGESLFKGPRDYNPISSSICHLTNESDGHTTSLYGIGFGPFIITSKHLFRRNNGTLVVQSLHGVFKVKDTTTLQQHLVDGRDMIIIRMPKDFPPFPQKLKFREPQREERICLVTTNFQTKSMSSMVSDTSCTFPSGDGIFWKHWIQTKDGQCGSPLVSTRDGFIVGIHSASNFTNTNNYFTSVPKNFMELLTNQEAQQWVSGWRLNADSVLWGGHKVFMVKPEEPFQPVKEATQL [N45S] | 0.116 |  | 0.0621 | 0.0608 | 0.0683 | 0.102 | 0.0576 | 0.0725 | 0.0768 | 0.0611 | 0.0608 | 0.0481 | 0.081 | 0.0615 | 0.048 | 0.056 | 0.0512 |  | 
MGESLFKGPRDYNPISSSICHLTNESDGHTTSLYGIGFGPFIITNKHLFRRNNGTLVVQSLHGVFKVKDTTTLQQHLVDGRDMIIIRMPKDFPPFPQKLKFREPQREERICLVTTNFQTKSMSSMVSDTSCTFPSGDGIFWKHQIQTKDGQCGSPLVSTRDGFIVGIHSASNFTNTNNYFTSVPKNFMELLTNQEAQQWVSGWRLNADSVLWGGHKVFMVKPEEPFQPVKEATQL [W144Q] | 0.086 | 0.0861 | 0.0586 | 0.0613 | 0.0903 |  | 0.0566 | 0.0555 | 0.0824 |  |  | 0.0916 |  |  |  | 0.0269 | 0.0672 | 0.0572 | 
MGESLFKGPRDYNPISSSICHLTNESDGHTTSLYGIGFGPFIITNKHLFRRNNGTLVVQSLHGVFKVKDTTTLQQHLVDGRDMIIIRMPKDFPPFPQKLKFREPQREERICLVTTNFQTKSMSSMVSDTSCTFPSGDGIMWKHWIQTKDGQCGSPLVSTRDGFIVGIHSASNFTNTNNYFTSVPKNFMELLTNQEAQQWVSGWRLNADSVLWGGHKVFMVKPEEPFQPVKEATQL [F140M] | 0.0818 |  | 0.0328 | 0.0638 | 0.0543 | 0.0569 | 0.0372 | 0.062 | 0.0785 |  | 0.0272 | 0.11 |  | 0.0577 |  | 0.0627 | 0.0539 |  | 0.0187
MGESLFKGPRDYNPISSSICHLTNESDGHTTSLYGIGFGPFIITNEHLFRRNNGTLVVQSLHGVFKVKDTTTLQQHLVDGRDMIIIRMPKDFPPFPQKLKFREPQREERICLVTTNFQTKSMSSMVSDTSCTFPSGDGIFWKHWIQTKDGQCGSPLVSTRDGFIVGIHSASNFTNTNNYFTSVPKNFMELLTNQEAQQWVSGWRLNADSVLWGGHKVFMVKPEEPFQPVKEATQL [K46E] | 0.0594 | 0.0563 | 0.0524 | 0.0524 | 0.0582 | 0.0575 | 0.0539 | 0.0585 | 0.0606 | 0.0495 | 0.052 | 0.0577 | 0.0514 | 0.0553 | 0.0583 | 0.0445 | 0.0556 | 0.0418 | 0.0541
MGESLFKGPRDYNPISSSICHLTNESDGHTTSLYGIGFGPFIITNKHLFRRNNGTLVVQSLHGVFKVKQTTTLQQHLVDGRDMIIIRMPKDFPPFPQKLKFREPQREERICLVTTNFQTKSMSSMVSDTSCTFPSGDGIFWKHWIQTKDGQCGSPLVSTRDGFIVGIHSASNFTNTNNYFTSVPKNFMELLTNQEAQQWVSGWRLNADSVLWGGHKVFMVKPEEPFQPVKEATQL [D69Q] | 0.0958 |  |  | 0.0633 | 0.062 | 0.0725 | 0.0628 | 0.0459 | 0.091 | 0.0584 |  |  | 0.0784 |  | 0.0431 | 0.0645 | 0.0683 | 0.0782 | 0.0671
MGESLFKGPRDYNPISSSICHLTNESDGHTTSLYGIGFGPFIITNKHLFRRNNGTLVVQSLHGVFKVKDTTTLQQHLVDGRDMIIIRMPKDFPPFPQKLKFREPQREERICLVTTNFQTKSMSSMGSDTSCTFPSGDGIFWKHWIQTKDGQCGSPLVSTRDGFIVGIHSASNFTNTNNYFTSVPKNFMELLTNQEAQQWVSGWRLNADSVLWGGHKVFMVKPEEPFQPVKEATQL [V126G] | 0.123 | 0.0901 |  | 0.0566 | 0.111 | 0.0873 |  | 0.0482 | 0.114 | 0.0578 |  |  |  | 0.0637 |  |  | 0.0762 |  | 
MGESLFKGPRDYNPISSSICHLTNESDGHTTSLYGIGFGPFIITNKHLFRRNNGTLVVQSLHGVFKVKDTTTLQQHLVDGRDMIIIRMPKDFPPFPQKLKFREPQREERICLVTTNFQTKSMSSMVSDTSCTFPSGDGIFWKHWIQTKDGQCGSPLVSTRDGFLVGIHSASNFTNTNNYFTSVPKNFMELLTNQEAQQWVSGWRLNADSVLWGGHKVFMVKPEEPFQPVKEATQL [I164L] | 0.086 | 0.0864 | 0.0602 | 0.0651 | 0.0726 | 0.0718 | 0.0477 | 0.0625 | 0.0889 | 0.0432 | 0.0952 | 0.0919 |  | 0.0575 |  | 0.0476 |  | 0.0924 | 
MGPSLFKGPRDYNPISSSICHLTNESDGHTTSLYGIGFGPFIITNKHLFRRNNGTLVVQSLHGVFKVKDTTTLQQHLVDGRDMIIIRMPKDFPPFPQKLKFREPQREERICLVTTNFQTKSMSSMVSDTSCTFPSGDGIFWKHWIQTKDGQCGSPLVSTRDGFIVGIHSASNFTNTNNYFTSVPKNFMELLTNQEAQQWVSGWRLNADSVLWGGHKVFMVKPEEPFQPVKEATQL [E3P] | 0.0891 | 0.0984 |  | 0.063 | 0.0963 | 0.0802 |  | 0.058 | 0.101 |  |  | 0.0902 | 0.0853 | 0.0644 |  | 0.0737 |  |  | 0.0735

Source: the supplement of paper PMC12217912
